Test results: paper PMC4336329 (PLoS ONE, 2015)
Out of some 310,000 compounds screened, about 14,000 (4.5%) showed an effect of 50% or more. Effects have a minus sign here. This is one part of the list.

These compounds were tested against human ether-à-go-go-related gene (hERG) potassium channel (human, UniProt Q12809) (assay: primary screen, population patch clamp on CHO cells stably expressing hERG).
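Also: peak tail current of the secondary pulse compared with the same well before compound.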

Chain of human ether-à-go-go-related gene (hERG) potassium channel (Q12809 whole entry, looked up): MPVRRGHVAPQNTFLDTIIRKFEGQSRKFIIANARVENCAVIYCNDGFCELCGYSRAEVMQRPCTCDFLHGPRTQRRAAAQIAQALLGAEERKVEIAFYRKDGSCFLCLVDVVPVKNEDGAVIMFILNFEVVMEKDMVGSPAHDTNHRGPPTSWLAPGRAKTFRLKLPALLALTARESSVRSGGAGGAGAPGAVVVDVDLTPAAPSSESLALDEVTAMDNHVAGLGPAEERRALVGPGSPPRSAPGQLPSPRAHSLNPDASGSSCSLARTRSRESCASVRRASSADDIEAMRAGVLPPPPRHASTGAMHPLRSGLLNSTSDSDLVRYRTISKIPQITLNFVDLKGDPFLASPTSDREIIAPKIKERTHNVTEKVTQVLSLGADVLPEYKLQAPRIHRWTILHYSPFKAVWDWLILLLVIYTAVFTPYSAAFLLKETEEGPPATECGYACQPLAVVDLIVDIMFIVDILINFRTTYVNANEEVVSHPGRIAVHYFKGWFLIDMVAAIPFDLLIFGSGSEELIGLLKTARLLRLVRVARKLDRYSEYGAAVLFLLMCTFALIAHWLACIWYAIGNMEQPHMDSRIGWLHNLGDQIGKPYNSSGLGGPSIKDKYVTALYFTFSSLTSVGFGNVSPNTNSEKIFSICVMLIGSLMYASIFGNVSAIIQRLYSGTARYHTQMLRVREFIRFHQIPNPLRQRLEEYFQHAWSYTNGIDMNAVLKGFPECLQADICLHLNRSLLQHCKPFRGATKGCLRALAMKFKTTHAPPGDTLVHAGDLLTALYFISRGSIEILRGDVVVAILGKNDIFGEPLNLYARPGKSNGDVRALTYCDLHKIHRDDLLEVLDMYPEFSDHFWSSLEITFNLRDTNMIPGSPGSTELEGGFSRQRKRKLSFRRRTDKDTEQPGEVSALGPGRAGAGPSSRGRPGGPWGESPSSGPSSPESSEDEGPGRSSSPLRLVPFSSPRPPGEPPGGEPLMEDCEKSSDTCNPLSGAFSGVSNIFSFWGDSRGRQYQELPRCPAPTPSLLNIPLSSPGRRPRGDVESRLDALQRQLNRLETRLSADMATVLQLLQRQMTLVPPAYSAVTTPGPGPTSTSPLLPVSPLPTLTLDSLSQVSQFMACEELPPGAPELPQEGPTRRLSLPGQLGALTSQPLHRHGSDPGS

Row | Compound | hERG current change (%, negative = inhibition) at 10uM [%]
1 | CC(=O)O[C@@]12CO[C@@H]1C[C@H](OC1OCC(O)C(O)C1O)[C@@]1(C)C(=O)[C@H](O)C3=C(C)[C@@H](OC(=O)[C@H](O)[C@@H](NC(=O)c4ccccc4)c4ccccc4)C[C@@](O)([C@@H](OC(=O)c4ccccc4)C12)C3(C)C (stereo partly shown) | -7.05
2 | Cc1ccc(N2CC(C(=O)Oc3cccc(N4C(=O)CCC4=O)c3)CC2=O)cc1 (stereo not shown) | -9.12
3 | Cc1ccc(-n2nc3ccc(N)cc3n2)cc1C | 11.8
4 | COc1ccc(CNC(=S)Nc2ccccc2-c2ccccc2)cc1 | -5.74
5 | Cc1cccc(CSc2nnc(CCNC(=O)OC(C)(C)C)o2)c1 | -7.22
6 | Cc1onc(-c2ccccc2)c1C(=O)N1CCN(S(=O)(=O)c2ccc(OC(F)(F)F)cc2)CC1 | -20.2
7 | Cc1cc2c3nonc3ccc2n1C | -7.19
8 | COc1ccccc1C1C(C#N)=C(N)Oc2c1c(-c1ccccc1)nn2-c1ccccc1 (stereo not shown) | 0.699
9 | CCN(CC(=O)Nc1ccc(NC(C)=O)cc1)CC(=O)Nc1ccccc1C(=O)c1ccccc1 | -46
10 | CCn1ccc(=O)c2cc3c(cc21)OCO3 | 10.3
11 | COc1ccccc1C(=O)NCCC(=O)NNC(=O)c1ccccc1O | 17.1
12 | O=C(NCc1ccccc1Cl)C1(S(=O)(=O)c2ccc(Cl)cc2)CC1 | -4.86
13 | Cl.O=C(OCC1CCCN2CCCCC12)c1ccc2c(c1)OCO2 (stereo not shown) | -22.8
14 | Cc1sc2nc(SCc3nc4ccccc4[nH]3)n(Cc3ccco3)c(=O)c2c1C | -9.15
15 | CCn1c(SCc2ccc(C(=O)Nc3cc(C)cc(C)c3)cc2)nnc1-c1ccncc1 | -59.2
16 | N#Cc1c(NC(=O)CSc2ncnc3sccc23)oc(-c2ccco2)c1-c1ccco1 | -0.309
17 | COc1ccc(OC)c(/C=N/NC(=S)NCCc2ccccc2)c1 | 8.63
18 | CCOC(=O)C1=C(N)OC2=C(C(=O)CCC2)C1c1ccc2c(c1)OCO2 (stereo not shown) | -1.12
19 | O=C(NC1CC1)c1ccc(CN(c2ccccc2)S(=O)(=O)c2ccccc2)cc1 | -4.61
20 | Cc1cccc(-c2nc(CN3CCCC(C(=O)NC4CCCCC4)C3)c(C)o2)c1 (stereo not shown) | -60.4
21 | O=C(Nc1nnc(C2CC2)s1)c1cccc(S(=O)(=O)N2CCc3ccccc32)c1 | 10.9
22 | Nc1nonc1-n1nnc(C(=O)N/N=C/c2cccc(Cl)c2)c1CSc1ccc(Cl)cc1 | 23.9

Row | Compound | hERG current change (%, negative = inhibition) at 10uM [%]
23 | C/C=C(\C)C(=O)N1CC2(CC(c3cccc(NC(=O)CCCCC)c3)=NO2)C[C@@H]1C(N)=O (stereo partly shown) | -6.29
24 | COc1ccc(CCN2C(=O)CC(NC34CC5CC(CC(C5)C3)C4)C2=O)cc1OC (stereo not shown) | -6.23
25 | Cc1ccc(NC(=O)c2cccnc2)c([N+](=O)[O-])c1 | -0.861
26 | C=CCSc1ncccc1C(=O)NCc1ccccc1 | 3.61
27 | O=C(Cc1n[nH]c(=O)c2ccccc12)NCc1ccccn1 | 1.91
28 | CC1CC(C)CN(C/C=C/c2ccccc2[N+](=O)[O-])C1 (stereo not shown) | -55.9
29 | CC(C)CN(CC(C)C)CC(O)CN(c1ccccc1)S(=O)(=O)c1ccccc1[N+](=O)[O-] (stereo not shown) | -51.5
30 | CCn1cnc2cc(NC(=O)c3ccco3)ccc21 | 14.1
31 | O=C(Cc1ccc(Br)cc1)NC1CCN(Cc2ccccc2)CC1 | -56
32 | COC(=O)C1=C(c2cccc(OCc3ccccc3)c2)C[C@@H]2CC[C@H]1N2C(=O)NCc1ccccc1 | 6.08
33 | O=C(NCC1CCCC(CNC(=O)N2CCc3ccccc32)C1)N1CCc2ccccc21 (stereo not shown) | -1.09
34 | COc1ccc(C2c3cc(OC)c(OC)cc3CCN2C(=O)c2cccc([N+](=O)[O-])c2)cc1OC (stereo not shown) | -22.4
35 | COc1cc(OC)cc(OC(=O)c2cccc(S(=O)(=O)N3CCN(C)CC3)c2)c1 | -14.1
36 | O=C(c1ccncc1)N1CCN(c2ccc3ccccc3n2)CC1 | -30.9
37 | COc1ccc(-c2nc(-c3ccc(C(=O)O)cc3)no2)cc1 | -1.08
38 | Cc1c(C(=O)N2CCN(c3ccc(F)cc3)CC2)sc2nc3n(c(=O)c12)CCC3 | -28.3
39 | CCCNC(=O)N1CCC(Cc2ccccc2)CC1 | 16.6
40 | CCOC(=O)c1ccccc1OC(=O)CS(=O)c1ccccc1[N+](=O)[O-] (stereo not shown) | 1.26
41 | COc1nc(OC)nc(N2CCC(NC(=O)C(Cc3ccc(C(C)C)cc3)NC(C)=O)CC2)n1 (stereo not shown) | 5.87
42 | Cc1nnc(SCc2cc([N+](=O)[O-])cc3c2OCOC3)n(N)c1=O | 15.5
43 | O=C(O)CCn1c(SCc2cccc3ccccc23)nc2ccccc21 | 3.01
